Laboratory results: patent US20240336638A1, “IMIDAZOLE COMPOUND, AND INTERMEDIATE AND APPLICATION THEREOF” (priority 2021, published 2024)
At least one read-out could not be matched to a standard name with certainty.

Tested on: AA-induced platelet aggregation
Test: Inhibitory effect on AA-induced platelet aggregation in rats in vitro (washed platelets)
Assay type: cell-based, rat
Conditions: at 4 minutes, AA 800 μM; for Aggregation rate: mean ± SD, n = 3; for Inhibition rate (%): vs AA model group
Method: Several experimental groups were established, including a blank control group, an AA (arachidonic acid) model control group, and various test compounds. Each test compound had three concentration groups: 10^−3 M, 10^−4 M, and 10^−5 M. The data from the blank and model control group were shared among the different drug concentration groups as a control.
Male SD rats were anesthetized with 3% chloral hydrate (300 mg/kg) through intraperitoneal injection. After being fixed in a supine position, the skin of the neck was cut about 3 cm, bluntly separated with a hemostat, and the trachea was exposed after the common carotid artery was separated. The distal end of the common carotid artery was ligated with a fine thread, and the proximal end was clamped with an arterial clamp for vascular intubation. After the intubation was fixed, the artery clamp was opened, and the blood was placed into a blood collection tube containing 3.8% trisodium citrate so that the blood was mixed well with the 3.8% trisodium citrate in a volume ratio of 9:1.
The prepared anticoagulant blood was mixed well and centrifuged for 10 minutes at 500 rpm, then the upper layer of plasma was aspirated to obtain platelet-rich plasma (PRP), and the PRP was centrifuged again for 5 minutes at 3,000 rpm. The supernatant was discarded, and the platelet precipitate was obtained, which was washed once with Ca^2+-free HEPES-Tyrode's buffer, then centrifuged at 3,000 rpm for 5 minutes. The supernatant was discarded, and the platelets were resuspended with Ca^2+-free HEPES-Tyrode's buffer to obtain the washed platelets.
First, 300 μL of Ca^2+-containing HEPES-Tyrode's solution was taken into the test cup, put into the test wells, and calibrated by pressing the “PPP” key. Subsequently, 240 μL of the washed platelets were added to the test cup, then added with 30 μL of different concentrations of drug solution, incubated for 10 minutes at 37° C. in a preheated bath, and then put into the test wells. 3 μL of 100× CaCl2 solution (final concentration of 0.2 g/L) and 30 μL of inducer (final concentration of AA of 800 μM) were added to the test wells, and then the “Start” key was pressed immediately. The maximum aggregation rate was recorded every 60 s. The measurement was repeated three times for each concentration for 10 minutes, and the aggregation curve was plotted.
The platelet aggregation inhibition rate was calculated with the following formula:
Inhibition rate (%)=(maximum aggregation rate in the model control group−maximum aggregation rate in the administration group)/maximum aggregation rate in the model control group×100%
All data were expressed as mean±standard deviation (mean±SD). SPSS 22.0 software was used for statistical analysis of the data. Intergroup data were analyzed using one-way ANOVA, with P<0.05 considered as statistically significant and P<0.01 considered as highly significant.

Row | SMILES | Aggregation rate (1 * 10^−3 M) | Inhibition rate (%) (1 * 10^−3 M) | Aggregation rate (1 * 10^−4 M) | Inhibition rate (%) (1 * 10^−4 M)
1 | O=C(O)[C@H]1C[C@@H]1c1ccc(Cn2cnc(Cl)c2)cc1Cl [Compound 23, (1S,2S)-2-(2-Chloro-4-((4-chloro-1H-imidazol-1-yl)methyl)phenyl)cyclopropane-1-carboxylic acid] | 42.9 ± 2.9 | −4.1% | 46.6 ± 3.2 | −13.1%
2 | Cc1cc([C@H]2C[C@@H]2C(=O)O)ccc1Cn1cnc(Cl)c1 [Compound 24, (1S,2S)-2-(4-((4-Chloro-1H-imidazol-1-yl)methyl)-3-methylphenyl)cyclopropane-1-carboxylic acid] | 20.7 ± 1.9 | 49.8% | 26.7 ± 4.1 | 35.2%
3 | Cc1cc(Cn2cnc(F)c2)ccc1[C@H]1C[C@@H]1C(=O)O [Compound 25, (1S,2S)-2-(4-((4-Fluoro-1H-imidazol-1-yl)methyl)-2-methylphenyl)cyclopropane-1-carboxylic acid] | 19.5 ± 1.3 | 52.7% | 30.3 ± 1.9 | 26.5%
4 | Cc1cc([C@H]2C[C@@H]2C(=O)O)ccc1Cn1ccnc1 [Compound 26, (1S,2S)-2-(4-((1H-Imidazol-1-yl)methyl)-3-methylphenyl)cyclopropane-1-carboxylic acid] | 29.1 ± 2.0 | 29.4% | 33.2 ± 0.7 | 19.4%
5 | Cc1cc(Cn2ccnc2)ccc1[C@H]1C[C@@H]1C(=O)O [Compound 27, (1S,2S)-2-(4-((1H-Imidazol-1-yl)methyl)-2-methylphenyl)cyclopropane-1-carboxylic acid] | 15.8 ± 1.6 | 61.7% | 28.1 ± 1.9 | 31.8%
6 | Cc1cc([C@H]2C[C@@H]2C(=O)O)ccc1Cn1cnc(F)c1 [Compound 28, (1S,2S)-2-(4-((4-Fluoro-1H-imidazol-1-yl)methyl)-3-methylphenyl)cyclopropane-1-carboxylic acid] | 27.3 ± 1.1 | 33.7% | 28.6 ± 3.8 | 30.6%
7 | Cc1cc(Cn2cnc(Cl)c2)ccc1[C@H]1C[C@@H]1C(=O)O [Compound 29, (1S,2S)-2-(4-((4-Chloro-1H-imidazol-1-yl)methyl)-2-methylphenyl)cyclopropane-1-carboxylic acid] | 31.5 ± 2.2 | 23.5% | 45.2 ± 3.9 | −9.7%
8 | O=C(O)[C@H]1C[C@@H]1c1ccc(Cn2ccnc2)c(Cl)c1 [Compound 30, (1S,2S)-2-(4-((1H-Imidazol-1-yl)methyl)-3-chlorophenyl)cyclopropane-1-carboxylic acid] | 17.7 ± 2.1 | 57.0% | 34.4 ± 4.5 | 16.5%
9 | O=C(O)[C@H]1C[C@@H]1c1ccc(Cn2cnc(Cl)c2)c(Cl)c1 [Compound 31, (1S,2S)-2-(3-Chloro-4-((4-chloro-1H-imidazol-1-yl)methyl)phenyl)cyclopropane-1-carboxylic acid] | 8.8 ± 0.4 | 78.0% | 18.3 ± 1.2 | 55.6%
10 | O=C(O)[C@H]1C[C@@H]1c1ccc(Cn2ccnc2)cc1F [Compound 32, (1S,2S)-2-(4-((1H-Imidazol-1-yl)methyl)-2-fluorophenyl)cyclopropane-1-carboxylic acid] | 19.6 ± 0.7 | 52.4% | 39.4 ± 1.4 | 4.4%
11 | O=C(O)[C@H]1C[C@@H]1c1ccc(Cn2cnc(Cl)c2)cc1F [Compound 33, (1S,2S)-2-(4-((4-Chloro-1H-imidazol-1-yl)methyl)-2-fluorophenyl)cyclopropane-1-carboxylic acid] | 9.9 ± 1.1 | 76.0% | 27.8 ± 1.1 | 32.5%
12 | O=C(O)[C@H]1C[C@@H]1c1ccc(Cn2cnc(Cl)c2)c(F)c1 [Compound 34, (1S,2S)-2-(4-((4-Chloro-1H-imidazol-1-yl)methyl)-3-fluorophenyl)cyclopropane-1-carboxylic acid] | 26.6 ± 2.9 | 35.4% | 28.8 ± 2.8 | 30.1%
13 | O=C(O)[C@H]1C[C@@H]1c1ccc(Cn2ccnc2)c(F)c1 [Compound 35, (1S,2S)-2-(4-((1H-Imidazol-1-yl)methyl)-3-fluorophenyl)cyclopropane-1-carboxylic acid] | 6.0 ± 0.5 | 85.4% | 27.5 ± 1.9 | 33.3%
14 | O=C(O)[C@H]1C[C@@H]1c1ccc(Cn2cnc(F)c2)c(F)c1 [Compound 36, (1S,2S)-2-(3-Fluoro-4-((4-fluoro-1H-imidazol-1-yl)methyl)phenyl)cyclopropane-1-carboxylic acid] | 20.8 ± 1.7 | 49.5% | 33.9 ± 4.2 | 17.7%
15 | O=C(O)[C@H]1C[C@@H]1c1ccc(Cn2cnc(F)c2)cc1F [Compound 37, (1S,2S)-2-(2-Fluoro-4-((4-fluoro-1H-imidazol-1-yl)methyl)phenyl)cyclopropane-1-carboxylic acid] | 10.5 ± 1.0 | 74.5% | 24.2 ± 2.1 | 41.3%
16 | O=C(O)[C@H]1C[C@@H]1c1ccc(Cn2cnc(F)c2)c(Cl)c1 [Compound 38, (1S,2S)-2-(3-Chloro-4-((4-fluoro-1H-imidazol-1-yl)methyl)phenyl)cyclopropane-1-carboxylic acid] | 8.0 ± 1.9 | 80.6% | 26.2 ± 3.3 | 36.4%
17 | O=C(O)C1CC1c1ccc(Cn2cnc(F)c2)cc1Cl (stereo not drawn) [SSL1-IM8] | 22.7 ± 2.4 | 44.7% |  | 
18 | Cc1cc(C2CC2C(=O)O)ccc1Cn1ccnc1 (stereo not drawn) [SSL6-IM2] | 20.1 ± 1.1 | 50.2% | 27.1 ± 0.9 | 22.1%
19 | Cc1cc(Cn2ccnc2)ccc1C1CC1C(=O)O (stereo not drawn) [SSL7-IM2] | 9.3 ± 0.5 | 77.2% | 23.7 ± 2.0 | 31.9%
20 | Cc1cc(C2CC2C(=O)O)ccc1Cn1cnc(F)c1 (stereo not drawn) [SSL8-IM2] | 21.2 ± 1.2 | 48.8% | 25.1 ± 1.8 | 27.9%
21 | Cc1cc(Cn2cnc(Cl)c2)ccc1C1CC1C(=O)O (stereo not drawn) [SSL9-IM2] | 27.6 ± 2.7 | 32.8% |  | 
22 | O=C(O)C1CC1c1ccc(Cn2ccnc2)c(Cl)c1 (stereo not drawn) [SSL10-IM7] | 16.4 ± 2.1 | 60.9% |  | 
23 | O=C(O)C1CC1c1ccc(Cn2cnc(Cl)c2)c(Cl)c1 (stereo not drawn) [SSL11-IM2] | 10.0 ± 1.4 | 75.5% |  | 
